The supplement of paper PMC7826260
The list shows a part of the results. Cleavage of a single-stranded DNA pool by Rep nickase domains was read by sequencing (1 h at 37 °C, 3 µM enzyme); the outer parts of the 90-letter strands are left off. Uncut reads are compared with the no-enzyme pool on a log2 scale; more negative means more cut, near 0 not cut, and no call is made. The scaling is to total reads; values above 0 arise when much of the pool is cut.

Key:
Experiment in all cases: uncleaved DNA left, log2 of reads against the no-enzyme library (log2 ratio); higher = less cleavage (more negative = more Rep cleavage of the k-mer); sequences stand for … in CTCGTCCG…ACCGGAGA
[1] = tested on: T1, Rep nickase domain of Muscovy duck circovirus
T1 sequence (protein, residues 1-111, tag omitted): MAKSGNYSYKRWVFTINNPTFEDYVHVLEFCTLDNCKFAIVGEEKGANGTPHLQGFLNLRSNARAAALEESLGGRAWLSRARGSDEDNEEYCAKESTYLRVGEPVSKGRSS
Method: (§1)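 A pool of 90-nt single-stranded DNAs with seven random bases just before the constant AC of the nick site (name = the seven bases) was cut by 3 µM recombinant His6-SUMO-tagged Rep nickase domain (300 nM DNA, 50 mM HEPES pH 8.0, 50 mM NaCl, 1 mM MnCl2, 1 h, 37 °C, three replicates). Uncut DNA was amplified and sequenced.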

[2] = tested on: T2, Rep nickase domain of banana bunchy top virus
T2 sequence (protein, residues 1-94, tag omitted): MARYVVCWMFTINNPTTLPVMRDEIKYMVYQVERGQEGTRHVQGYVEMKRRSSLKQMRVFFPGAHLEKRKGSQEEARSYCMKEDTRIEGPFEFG
Method: as §1

[3] = tested on: T3, Rep nickase domain of cabbage leaf curl virus
T3 sequence (protein, residues 1-116, tag omitted): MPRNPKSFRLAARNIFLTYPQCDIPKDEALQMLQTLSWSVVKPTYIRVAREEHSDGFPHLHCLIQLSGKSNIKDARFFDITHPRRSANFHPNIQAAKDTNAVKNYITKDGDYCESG
Method: as §1

[4] = tested on: T4, Rep nickase domain of chickpea chlorotic dwarf virus
T4 sequence (protein, residues 1-124, tag omitted): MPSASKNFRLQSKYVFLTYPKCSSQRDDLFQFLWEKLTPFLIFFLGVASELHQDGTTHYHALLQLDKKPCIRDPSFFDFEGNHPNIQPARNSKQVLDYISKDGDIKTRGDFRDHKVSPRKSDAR
Method: as §1

[5] = tested on: T5, Rep nickase domain of faba bean necrotic yellows virus
T5 sequence (protein, residues 1-98, tag omitted): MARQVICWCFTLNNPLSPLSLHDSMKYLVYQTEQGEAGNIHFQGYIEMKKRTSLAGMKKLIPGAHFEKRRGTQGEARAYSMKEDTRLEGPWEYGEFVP
Method: as §1

[6] = tested on: T6, Rep nickase domain of maize striate mosaic virus
T6 sequence (protein, residues 1-117, tag omitted): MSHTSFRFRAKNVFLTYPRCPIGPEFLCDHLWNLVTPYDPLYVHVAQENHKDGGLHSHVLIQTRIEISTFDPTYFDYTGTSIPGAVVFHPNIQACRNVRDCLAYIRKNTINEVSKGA
Method: as §1

[7] = tested on: T7, Rep nickase domain of porcine circovirus 2
T7 sequence (protein, residues 2-116, tag omitted): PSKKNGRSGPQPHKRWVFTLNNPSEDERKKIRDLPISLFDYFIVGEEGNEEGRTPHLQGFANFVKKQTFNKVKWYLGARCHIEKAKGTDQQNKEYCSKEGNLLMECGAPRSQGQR
Method: as §1

[8] = tested on: T8, Rep nickase domain of tomato golden mosaic virus
T8 sequence (protein, residues 1-124, tag omitted): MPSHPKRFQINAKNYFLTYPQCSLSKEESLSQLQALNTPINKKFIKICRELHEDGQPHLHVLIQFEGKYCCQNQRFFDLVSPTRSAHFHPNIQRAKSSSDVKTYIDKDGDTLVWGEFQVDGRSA
Method: as §1

[9] = tested on: T9, Rep nickase domain of tomato yellow leaf curl virus
T9 sequence (protein, residues 1-136, tag omitted): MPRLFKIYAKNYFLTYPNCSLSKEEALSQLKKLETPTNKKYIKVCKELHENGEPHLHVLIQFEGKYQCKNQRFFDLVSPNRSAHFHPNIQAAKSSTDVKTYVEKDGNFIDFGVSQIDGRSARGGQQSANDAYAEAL
Method: as §1

[10] = tested on: T10, Rep nickase domain of wheat dwarf virus
T10 sequence (protein, residues 1-137, tag omitted): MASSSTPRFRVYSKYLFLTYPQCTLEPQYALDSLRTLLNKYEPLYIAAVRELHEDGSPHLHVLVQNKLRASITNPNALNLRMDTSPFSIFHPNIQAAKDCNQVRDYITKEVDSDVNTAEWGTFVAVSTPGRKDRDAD
Method: as §1

Sequence	uncleaved DNA left (log2) [1]	uncleaved DNA left (log2) [2]	uncleaved DNA left (log2) [3]	uncleaved DNA left (log2) [4]	uncleaved DNA left (log2) [5]	uncleaved DNA left (log2) [6]	uncleaved DNA left (log2) [7]	uncleaved DNA left (log2) [8]	uncleaved DNA left (log2) [9]	uncleaved DNA left (log2) [10]
TGATATG	0.11	-0.0436	-0.341	-0.236	0.0818	-0.796	0.05	0.0247	-0.0886	-0.104
AGGGCAG	0.00214	0.0683	0.377	1.31	-0.0975	1.17	0.191	0.00647	0.0688	0.101
TTGTACG	-0.034	-0.0413	-0.881	-0.767	-0.115	-1.34	0.226	-0.172	0.0154	-0.154
CTGCACT	0.0347	-0.0353	-0.295	-1.67	-0.133	-0.741	-0.331	-0.199	-0.099	-0.096
CATGCTC	-0.0469	-0.00731	-0.4	-0.962	-0.0127	-1.15	-0.00878	-0.0845	0.0643	-0.102
AAATCTG	0.0973	0.00692	0.0344	0.687	0.0801	0.948	0.113	0.111	-0.0623	0.107
GCCACCT	-0.0566	0.0208	0.0891	-1.07	-0.0864	0.165	-0.0796	-0.0427	-0.0679	0.0469
ACAACAA	-0.035	-0.0453	-0.165	-0.541	0.0592	-0.763	0.105	0.00212	-0.123	-0.0177
AAAATAA	0.0183	0.148	-0.183	-0.555	0.0269	-0.557	0.136	0.252	-0.0383	0.139
TCACGTT	0.00931	-0.172	-0.573	-2.62	-0.0589	-0.988	-0.316	-0.243	0.0384	-0.652
CCACTCT	0.0894	-0.0211	-0.378	-2.45	0.0307	-0.68	0.0113	0.0127	0.0212	-0.158
ATATCCA	-0.173	0.0104	-0.103	-1.17	-0.0176	-0.378	-0.181	0.0254	0.049	0.0628
GAGCTTT	0.132	0.0494	0.149	-1.48	0.0371	1.02	-2.67	0.0351	0.063	0.135
CCAAAGG	-0.0405	0.0376	0.318	1.08	0.0713	0.349	0.204	0.0459	0.019	0.0856
GGCACTG	-0.0434	-0.0158	-0.0399	0.624	-0.129	1.63	0.0455	-0.0183	-0.0274	0.0522
ATTTAAG	-0.0301	0.0178	-0.814	-0.246	0.104	-1.18	0.152	0.0543	0.0815	0.0181

Sequence	uncleaved DNA left (log2) [1]	uncleaved DNA left (log2) [2]	uncleaved DNA left (log2) [3]	uncleaved DNA left (log2) [4]	uncleaved DNA left (log2) [5]	uncleaved DNA left (log2) [6]	uncleaved DNA left (log2) [7]	uncleaved DNA left (log2) [8]	uncleaved DNA left (log2) [9]	uncleaved DNA left (log2) [10]
AGACAGT	0.136	0.0618	0.679	1.32	0.168	1.67	0.137	0.0745	0.177	0.218
CTAGTTT	0.178	-0.0171	-0.0327	-2.05	0.0729	-0.334	-0.332	0.00426	0.0465	-0.0939
ATATATA	0.0412	-0.0413	-0.146	-1.86	-0.00535	-0.652	-0.146	-0.00463	-0.0245	-0.00522
AGTGTGA	0.13	-0.00953	-0.109	-0.0693	-0.031	-0.456	-0.127	0.0423	-0.027	-0.0217
ATGACTT	-0.004	-0.0511	-0.000592	0.543	-0.0148	1.01	-0.417	-0.171	-0.097	0.0498
GGTAACT	0.0297	0.0385	0.521	0.915	0.0665	1.98	0.0285	0.00166	0.0339	0.0823
AGCGATT	0.0787	0.203	0.192	0.658	0.078	1.61	0.116	0.162	-0.0592	0.107
ACATTTG	-0.0678	-0.104	-0.745	-0.577	-0.0216	-1.13	0.168	-0.117	0.00409	-0.0804
GGGACCG	0.0286	0.181	0.826	1.92	-0.0512	2.16	0.303	0.0711	0.00996	0.187
AGCTCGG	-0.052	0.113	0.136	0.95	0.0237	1.31	0.131	0.184	0.0518	0.134
GTGCGGA	-0.13	-0.0311	-0.255	0.202	-0.0916	-0.421	-0.0164	-0.0523	-0.0429	-0.0965
AACCCGC	-0.119	-0.195	0.024	0.433	-0.144	-0.617	-0.256	-0.341	-0.172	-0.148
AGTCCCA	-0.0158	-0.0208	0.336	0.418	-0.0351	1.22	-0.484	-0.104	0.0807	-0.215
GGTGTAT	0.199	0.184	0.797	1.5	0.0506	2.19	0.173	0.12	0.308	0.182
GTGAATT	0.0814	0.000283	0.361	0.907	0.000915	1.84	-0.182	0.0631	0.164	0.135
